US20240158408A1, “Nitrogen-Containing Heterocyclic Compound, Pharmaceutical Compositions thereof and Use thereof” (280 Bio, Inc., priority 2022, published 2024)

Target: PI3Kα H1047R (Homo sapiens (Human), UniProt P42336, H1047R)
Settings: read-out: PI3KαH1047RIC50

SMILES	IC50 [nM]
CCn1nc2ccc(NC(=O)c3cc(F)cc(C(F)(F)F)c3)c3c2c1C(=O)NC3c1cc(F)ccc1Cl (stereo not shown) [YL115]	< 250
CC(C)n1nc2ccc(NC(=O)c3cc(F)cc(C(F)(F)F)c3)c3c2c1C(=O)NC3c1cc(F)ccc1Cl (stereo not shown) [YL118]	< 250

Same assay, conditions: read-out: PI3KαH1047RIC50; ADP-Glo; ATP 25 μM; PIP2 50 μg/mL; 1 hour at room temperature

SMILES	IC50 [nM]
Cc1ccccc1C1NC(=O)c2cccc3ccc(NC(=O)c4csc5ccccc45)c1c23 (stereo not shown) [YL004]	250 to 10000
O=C(Nc1cc(NC(=O)C(F)(F)F)c2c3c1C(c1cc(F)ccc1Cl)NC(=O)N3CC2)c1cc(F)cc(C(F)(F)F)c1 (stereo not shown) [YL009]	< 250
[N-]=[N+]=Nc1cc(NC(=O)c2cc(F)cc(C(F)(F)F)c2)c2c3c1CCN3C(=O)NC2c1cc(F)ccc1Cl (stereo not shown) [YL011]	< 250
O=C(Nc1cc(N2CC(F)(F)C2)c2c3c1C(c1cc(F)ccc1Cl)NC(=O)N3CC2)c1cc(F)cc(C(F)(F)F)c1 (stereo not shown) [YL012]	< 250
Nc1n[nH]c2ccc(-c3cc(NC(=O)c4cc(F)cc(C(F)(F)F)c4)c4c5c3CCN5C(=O)NC4c3cc(F)ccc3Cl)cc12 (stereo not shown) [YL013]	< 250
Cn1nc(C(F)(F)F)cc1-c1cc(NC(=O)c2cc(F)cc(C(F)(F)F)c2)c2c3c1CCN3C(=O)NC2c1cc(F)ccc1Cl (stereo not shown) [YL014]	< 250
Cn1cc(-c2cc(NC(=O)c3cc(F)cc(C(F)(F)F)c3)c3c4c2CCN4C(=O)NC3c2cc(F)ccc2Cl)cn1 (stereo not shown) [YL015]	< 250
O=C(Nc1cc(-c2cnoc2)c2c3c1C(c1cc(F)ccc1Cl)NC(=O)N3CC2)c1cc(F)cc(C(F)(F)F)c1 (stereo not shown) [YL018]	< 250
O=C(Nc1cc(B(O)O)c2c3c1C(c1cc(F)ccc1Cl)NC(=O)N3CC2)c1cc(F)cc(C(F)(F)F)c1 (stereo not shown) [YL019]	< 250
Cc1cc(NC(=O)c2cc(F)cc(C(F)(F)F)c2)c2c3c1CCN3C(=O)NC2c1cc(F)ccc1Cl (stereo not shown) [YL020]	250 to 10000
O=C(Nc1cc(F)c2c3c1C(c1cc(F)ccc1Cl)NC(=O)N3CC2)c1cc(F)cc(C(F)(F)F)c1 (stereo not shown) [YL021]	< 250
O=C(Nc1cc(NC2CC2)c2c3c1C(c1cc(F)ccc1Cl)NC(=O)N3CC2)c1cc(F)cc(C(F)(F)F)c1 (stereo not shown) [YL022]	< 250
O=C(Nc1cc(Nc2cnn(C3CCOCC3)c2)c2c3c1C(c1cc(F)ccc1Cl)NC(=O)N3CC2)c1cc(F)cc(C(F)(F)F)c1 (stereo not shown) [YL023]	< 250
O=C(Nc1cc(NC2COC2)c2c3c1C(c1cc(F)ccc1Cl)NC(=O)N3CC2)c1cc(F)cc(C(F)(F)F)c1 (stereo not shown) [YL027]	< 250
O=C(Nc1cc(NC2CCOCC2)c2c3c1C(c1cc(F)ccc1Cl)NC(=O)N3CC2)c1cc(F)cc(C(F)(F)F)c1 (stereo not shown) [YL028]	< 250
C[C@H](O)C(=O)Nc1cc(NC(=O)c2cc(F)cc(C(F)(F)F)c2)c2c3c1CCN3C(=O)NC2c1cc(F)ccc1Cl (stereo partly shown) [YL030]	< 250
C[C@@H](O)C(=O)Nc1cc(NC(=O)c2cc(F)cc(C(F)(F)F)c2)c2c3c1CCN3C(=O)NC2c1cc(F)ccc1Cl (stereo partly shown) [YL031]	< 250
O=C1NC(c2cc(F)ccc2Cl)c2c(-c3nc4c(F)cc(C(F)(F)F)cc4[nH]3)ccc3c2N1CC3 (stereo not shown) [YL032]	< 250
O=C(Nc1cc(-c2c[nH]c3ncc(C(F)(F)F)cc23)c2c3c1C(c1cc(F)ccc1Cl)NC(=O)N3CC2)c1cc(F)cc(C(F)(F)F)c1 (stereo not shown) [YL036]	< 250
O=C1NC(c2cc(F)ccc2Cl)c2c(Nc3nccc4c(C(F)(F)F)cc(F)cc34)cc(Br)c3c2N1CC3 (stereo not shown) [YL042]	< 250
Nc1cc(-c2cc(Nc3nccc4c(C(F)(F)F)cc(F)cc34)c3c4c2CCN4C(=O)NC3c2cc(F)ccc2Cl)n[nH]1 (stereo not shown) [YL044]	< 250
O=C1NC(c2cc(F)ccc2Cl)c2c(Nc3nccc4c(C(F)(F)F)cc(F)cc34)cc(F)c3c2N1CC3 (stereo not shown) [YL045]	250 to 10000

SMILES	IC50 [nM]
O=C(Nc1cc(-c2c(C(F)(F)F)n[nH]c2C2CC2)c2c3c1C(c1cc(F)ccc1Cl)NC(=O)N3CC2)c1cc(F)cc(C(F)(F)F)c1 (stereo not shown) [YL048]	< 250
O=C(Nc1cc(-c2c(C(F)(F)F)n[nH]c2-c2ccccc2)c2c3c1C(c1cc(F)ccc1Cl)NC(=O)N3CC2)c1cc(F)cc(C(F)(F)F)c1 (stereo not shown) [YL049]	250 to 10000
O=C1NC(c2cc(F)ccc2Cl)c2c(Nc3nccc4c(C(F)(F)F)cc(F)cc34)ccc3c2N1CC3 (stereo not shown) [YL050]	< 250
O=C1NC(c2cc(F)ccc2Cl)c2c(Nc3ncnc4cc(F)cc(F)c34)ccc3c2N1CC3 (stereo not shown) [YL051]	> 10000
O=C1NC(c2cc(F)ccc2Cl)c2c(Nc3ncnc4c(Cl)cc(F)cc34)ccc3c2N1CC3 (stereo not shown) [YL052]	250 to 10000
Nc1cc(-c2cc(NC(=O)c3cc(F)cc(C(F)(F)F)c3)c3c4c2CCN4C(=O)NC3c2cc(F)ccc2Cl)[nH]n1 (stereo not shown) [YL053]	< 250
O=C(Nc1cc(-c2ccn[nH]2)c2c3c1C(c1cc(F)ccc1Cl)NC(=O)N3CC2)c1cc(F)cc(C(F)(F)F)c1 (stereo not shown) [YL054]	< 250
Nc1cc(NC(=O)c2cc(F)cc(C(F)(F)F)c2)c2c3c1CCN3C(=O)NC2c1cccc2ccccc12 (stereo not shown) [YL060]	250 to 10000
O=C(Nc1cc(-c2nn(Cc3ccccc3)cc2F)c2c3c1C(c1cc(F)ccc1Cl)NC(=O)N3CC2)c1cc(F)cc(C(F)(F)F)c1 (stereo not shown) [YL061]	250 to 10000
O=C(Nc1cc(Br)c2c3c1C(c1cccc(F)c1)NC(=O)N3CC2)c1cc(F)cc(C(F)(F)F)c1 (stereo not shown) [YL062]	250 to 10000
O=C(Nc1cc(Br)c2c3c1C(c1cc(F)ccc1Br)NC(=O)N3CC2)c1cc(F)cc(C(F)(F)F)c1 (stereo not shown) [YL063]	< 250
O=C(Nc1cc(Br)c2c3c1C(c1ccccc1)NC(=O)N3CC2)c1cc(F)cc(C(F)(F)F)c1 (stereo not shown) [YL064]	250 to 10000
O=C(Nc1cc(Br)c2c3c1C(c1ccccc1Cl)NC(=O)N3CC2)c1cc(F)cc(C(F)(F)F)c1 (stereo not shown) [YL066]	250 to 10000
Cc1ncc(-c2cc(NC(=O)c3cc(F)cc(C(F)(F)F)c3)c3c4c2CCN4C(=O)NC3c2cc(F)ccc2Cl)[nH]1 (stereo not shown) [YL067]	250 to 10000
Cc1nc[nH]c1-c1cc(NC(=O)c2cc(F)cc(C(F)(F)F)c2)c2c3c1CCN3C(=O)NC2c1cc(F)ccc1Cl (stereo not shown) [YL068]	< 250
C#Cc1cc(NC(=O)c2cc(F)cc(C(F)(F)F)c2)c2c3c1CCN3C(=O)NC2c1cc(F)ccc1Cl (stereo not shown) [YL069]	250 to 10000
Cc1cc(-c2cc(NC(=O)c3cc(F)cc(C(F)(F)F)c3)c3c4c2CCN4C(=O)NC3c2cc(F)ccc2Cl)n[nH]1 (stereo not shown) [YL070]	250 to 10000
O=C(Nc1cc(-c2cn[nH]c2C(F)(F)F)c2c3c1C(c1cc(F)ccc1Cl)NC(=O)N3CC2)c1cc(F)cc(C(F)(F)F)c1 (stereo not shown) [YL071]	< 250
Cc1n[nH]c(C(F)(F)F)c1-c1cc(NC(=O)c2cc(F)cc(C(F)(F)F)c2)c2c3c1CCN3C(=O)NC2c1cc(F)ccc1Cl (stereo not shown) [YL072]	< 250
O=C(Nc1cc(F)cc(C(F)(F)F)c1)Nc1cc(Br)c2c3c1C(c1cc(F)ccc1Cl)NC(=O)N3CC2 (stereo not shown) [YL122]	< 250
Cn1nc2ccc(NC(=O)c3cc(F)cc(C(F)(F)F)c3)c3c2c1C(=O)NC3c1cc(Cl)c(F)cc1Cl (stereo not shown) [YL123]	> 10000
N#Cc1c[nH]nc1-c1cc(NC(=O)c2cc(F)cc(C(F)(F)F)c2)c2c3c1CCN3C(=O)NC2c1cc(F)ccc1Cl (stereo not shown) [YL125]	> 10000

SMILES	IC50 [nM]
N#Cc1n[nH]cc1-c1cc(NC(=O)c2cc(F)cc(C(F)(F)F)c2)c2c3c1CCN3C(=O)NC2c1cc(F)ccc1Cl (stereo not shown) [YL126]	< 250
O=C(Nc1cc(C(=O)O)c2c3c1C(c1cc(Cl)ncc1Cl)NC(=O)N3CC2)c1cc(F)cc(C(F)(F)F)c1 (stereo not shown) [YL127]	> 10000
O=C(Nc1cc(-c2ccc3ncnn3c2)c2c3c1C(c1cc(F)ccc1Cl)NC(=O)N3CC2)c1cc(F)cc(C(F)(F)F)c1 (stereo not shown) [YL128]	< 250
O=C(Nc1cc(-c2ccc3ncnn3c2F)c2c3c1C(c1cc(F)ccc1Cl)NC(=O)N3CC2)c1cc(F)cc(C(F)(F)F)c1 (stereo not shown) [YL129]	250 to 10000
N#Cc1ccc(-c2cc(NC(=O)c3cc(F)cc(C(F)(F)F)c3)c3c4c2CCN4C(=O)NC3c2cc(Cl)ccc2Cl)c(N)n1 (stereo not shown) [YL130]	250 to 10000
N#Cc1ncccc1-c1cc(NC(=O)c2cc(F)cc(C(F)(F)F)c2)c2c3c1CCN3C(=O)NC2c1cc(Cl)ccc1Cl (stereo not shown) [YL131]	> 10000
N#Cc1c(N)cccc1-c1cc(NC(=O)c2cc(F)cc(C(F)(F)F)c2)c2c3c1CCN3C(=O)NC2c1cc(Cl)ccc1Cl (stereo not shown) [YL132]	< 250
N#Cc1c(N)cccc1-c1cc(NC(=O)c2cc(F)cc(C(F)(F)F)c2)c2c3c1CCN3C(=O)NC2c1cc(F)ccc1Cl (stereo not shown) [YL133]	< 250
N#Cc1ccc(-c2cc(NC(=O)c3cc(F)cc(C(F)(F)F)c3)c3c4c2CCN4C(=O)NC3c2cc(F)ccc2Cl)c(N)n1 (stereo not shown) [YL134]	< 250
N#Cc1ncccc1-c1cc(NC(=O)c2cc(F)cc(C(F)(F)F)c2)c2c3c1CCN3C(=O)NC2c1cc(F)ccc1Cl (stereo not shown) [YL136]	< 250
N#Cc1nc(N)ncc1-c1cc(NC(=O)c2cc(F)cc(C(F)(F)F)c2)c2c3c1CCN3C(=O)NC2c1cc(F)ccc1Cl (stereo not shown) [YL137]	< 250
O=C(Nc1cc(-c2ccc3ncnn3c2Br)c2c3c1C(c1cc(F)ccc1Cl)NC(=O)N3CC2)c1cc(F)cc(C(F)(F)F)c1 (stereo not shown) [YL139]	< 250
C#Cc1c(-c2cc(NC(=O)c3cc(F)cc(C(F)(F)F)c3)c3c4c2CCN4C(=O)NC3c2cc(F)ccc2Cl)ccc2ncnn12 (stereo not shown) [YL140]	< 250
N#Cc1ncncc1-c1cc(NC(=O)c2cc(F)cc(C(F)(F)F)c2)c2c3c1CCN3C(=O)NC2c1cc(F)ccc1Cl (stereo not shown) [YL141]	< 250
N#Cc1c(-c2cc(NC(=O)c3cc(F)cc(C(F)(F)F)c3)c3c4c2CCN4C(=O)NC3c2cc(F)ccc2Cl)ccc2[nH]ncc12 (stereo not shown) [YL142]	< 250
N#Cc1nc(F)ncc1-c1cc(NC(=O)c2cc(F)cc(C(F)(F)F)c2)c2c3c1CCN3C(=O)NC2c1cc(F)ccc1Cl (stereo not shown) [YL143]	< 250
O=C(Nc1cc(-c2ccc3ncnn3c2C(F)(F)F)c2c3c1C(c1cc(F)ccc1Cl)NC(=O)N3CC2)c1cc(F)cc(C(F)(F)F)c1 (stereo not shown) [YL145]	< 250
COc1c(-c2cc(NC(=O)c3cc(F)cc(C(F)(F)F)c3)c3c4c2CCN4C(=O)NC3c2cc(F)ccc2Cl)ccc2ncnn12 (stereo not shown) [YL146]	< 250
O=C(Nc1cc(-c2cnc3[nH]cnc3c2Cl)c2c3c1C(c1cc(F)ccc1Cl)NC(=O)N3CC2)c1cc(F)cc(C(F)(F)F)c1 (stereo not shown) [YL147]	< 250
N#Cc1cc(N)ccc1-c1cc(NC(=O)c2cc(F)cc(C(F)(F)F)c2)c2c3c1CCN3C(=O)NC2c1cc(F)ccc1Cl (stereo not shown) [YL150]	< 250
N#Cc1cc(N)ncc1-c1cc(NC(=O)c2cc(F)cc(C(F)(F)F)c2)c2c3c1CCN3C(=O)NC2c1cc(F)ccc1Cl (stereo not shown) [YL152]	< 250
